Reference: patent US20210147571A1, “MONOCLONAL ANTIBODY TARGETING HUMAN TUMOR STEM CELLS AND USE THEREOF” (Suzhou Bojuhua Biomedical Technology Co. Ltd, priority 2017, published 2021)

How the values were obtained:
[1] = test system: Bel7402-V13 sphere cells; assay: Transwell invasion inhibition; format: cell-based, human
Experimental: Hetumomab^+ cells, parental cells and Hetumomab^− cells were isolated from human liver cancer Bel7402-V13 sphere cells cultured for 5 days by flow sorting. The sorted cells were seeded in the same amount in a Transwell chamber previously coated with Matrigel gel, and fixed after 24 hours, to observe the number of cells invading through the membrane under a microscope. […] Therefore, Hetumomab^+ cells have stronger invasion ability than the parental cells and Hetumomab^− cells.
High invasiveness is another important biological feature of cancer stem cells.

[2] = test system: target antigen of Hetumomab in human liver cancer tissues; assay: immunohistochemistry of liver tissues; format: binding
Excerpt: By using conventional immunohistochemical techniques, the expression of the target antigen of Hetumomab in many human liver cancer, lung cancer, gastric cancer patients and other related tissues was detected by taking Hetumomab as the primary antibody, and the anti-mouse antibody as the secondary antibody.
By using Hetumomab as the primary antibody, the expression of the target antigen of Hetumomab was detected in human liver cancer tissues of 120 cases, para-carcinoma tissues of 20 cases, normal liver tissues of 10 cases, hepatitis tissues of 10 cases and hepatic cirrhosis tissues of 40 cases.

[3] = test system: Bel7402-V13 cells; assay: flow immunofluorescence, positive cells in parental and sphere cells; format: binding, human
Experimental: (§1) The human liver cancer cell line Bel7402-V13 and MHCC97L cells were cultured for 5 days in a serum-free manner, and the Hetumomab^+ cells in the parental cells and in the cells from sphere culture were detected by viable cell flow fluorescence cytometry. […] That is, after serum-free culture, Hetumomab^+ cells of the liver cancer cell line were enriched.
(§2) As described above, four cell lines, SNU-5, BGC-823, MHCC-97L, and BEL7402 V13, were used to harvest both parental cells and tumor-stem-cell-rich sphere cells. […] The results are as follows:
(§3) According to the aforementioned method, four cell lines, SNU-5, BGC-823, MHCC-97L, and BEL7402 V13, were used to harvest both parental cells and tumor-stem-cell-rich sphere cells. […]

[4] = test system: MHCC97L cells; assay: as above; format: binding, human
Experimental: as §1, §2, §3

[5] = test system: target antigen on the surface of MHCC-97L cells; assay: competitive inhibition cell ELISA; format: binding, human
Experimental: (§4) MHCC-97L cells were seeded in a 96-well culture plate (4×10^3 cells/well), and experiments were performed when the cells grew to 90% to 100%. After discarding the culture medium in the wells, the plate was washed with PBS containing 0.05% Tween-20, 300 μl/well, 1 min×5 times. The samples were then added based on the following design in duplicate, 100 μl/well, and incubated at 37° C. for 1.5 h. After discarding the liquid from the wells, the plate was washed with PBS containing 0.05% Tween-20, 300 μl/well, 1 min×5 times. Corresponding secondary antibodies against human IgG Fc-HRP (nonreactive with mouse IgG Fc) or against mouse IgG Fc-HRP (nonreactive with human IgG Fc) 1:5000 diluted was then added, 100 μl/well, and incubated for 1 h at 37° C. After discarding the liquid in the wells, the plate was washed with PBS containing 0.05% Tween-20, 300 μl/well, 1 min×3 times, and then washed again with pure water for two times. After shaking off the pure water, TMB was then added, 100 μl/well, and then incubated at 37° C. for 30 min for visualization; and then 2M H2504 was added, 50 μl/well. After that, the OD450 was measured by microplate reader.
as §4, with “added” for “added based on the following design”, “(not reactive” for “(nonreactive”, “μl/well.” for “μl/well. After that, the”

B1: Hetumomab: mouse monoclonal antibody (IgG1, κ) against human tumor stem cells, hybridoma CGMCC NO. 12251; VL SEQ ID NO:1, VH SEQ ID NO:5 (antibody, V domains shown)
VH: QVTLKESGPGILQPSQTLSLTCSFSGFSLSTSGMGVSWIRQPSGKGLEWLAHIYWDDDKRYNPSLKSRLTISKDSSNNQVFLKITSVDTADTATYYCARSFYYYANNSFAYWGQGTLVTVSS
VL: DIVMTQAAFSNPVTLGTSASISCRSSKSLLHSNGITYLYWFLQKPGQSPQLLIYQMSNLASGVPDRFSSSGSGTDFTLRISRVEAEDVGVYYCAQNLELYTFGGGTKLEIK
modifications: Hetumomab heavy chain variable region; Hetumomab light chain variable region
number of invasive cells ([1]; Hetumomab 0.5 mg/ml): 148±16.4 /field of vision | inhibition rate of invasion ([1]; Hetumomab 0.5 mg/ml vs PBS): 50.8% | Proportion of Positive Cases (%) ([2]; Hepatic Cirrhosis): 0% | Proportion of Positive Cases (%) ([2]; Hepatitis): 0% | Proportion of Positive Cases (%) ([2]; Liver Cancer Para-carcinoma Tissue): 0% | Proportion of Positive Cases (%) ([2]; Liver Cancer Tissue, 120 cases): 79.17% | Proportion of Positive Cases (%) ([2]; Normal Liver Tissue): 0% | Fold Enrichment ([3]; BEL7402 V13, Table 26): 1.6 | positive rate, Parental Cells ([3]; BEL7402 V13, Table 26): 7.59% | positive rate, Sphere Cells ([3]; BEL7402 V13, Table 26): 12% | ratio of positive cells, Cells from Sphere Culture ([3]; Bel7402-V13, 5 days serum-free, Table 4): 8.92% | ratio of positive cells, Parental Cells ([3]; Bel7402-V13, Table 4): 2.25% | Fold Enrichment ([3]; Bel7402-V13, sphere vs parental, Table 4): 3.96 | Fold Enrichment ([4]; MHCC97L, Table 4): 2.18 | ratio of positive cells, Cells from Sphere Culture ([4]; MHCC97L, Table 4): 7.51% | ratio of positive cells, Parental Cells ([4]; MHCC97L, Table 4): 3.45% | Fold Enrichment ([4]; MHCC-97L, Table 26): 2.2 | positive rate, Parental Cells ([4]; MHCC-97L, Table 26): 7.38% | positive rate, Sphere Cells ([4]; MHCC-97L, Table 26): 15.98% | Average OD450 ([5]; 0.25 μg/ml Hetumomab + 0 μg/ml Hetuximab, anti-mouse IgG Fc-HRP, Table 25): 2.278 | Average OD450 ([5]; antibody alone 0.25 μg/ml, anti-human IgG Fc-HRP, Table 24): 0.082 | Average OD450 ([5]; antibody alone 0.25 μg/ml, anti-mouse IgG Fc-HRP, Table 25): 2.168 | Average OD450 ([5]; antibody alone 0.5 μg/ml, anti-human IgG Fc-HRP, Table 24): 0.082 | Average OD450 ([5]; antibody alone 0.5 μg/ml, anti-mouse IgG Fc-HRP, Table 25): 2.361 | Average OD450 ([5]; antibody alone 1 μg/ml, anti-human IgG Fc-HRP, Table 24): 0.112 | Average OD450 ([5]; antibody alone 1 μg/ml, anti-mouse IgG Fc-HRP, Table 25): 2.523 | Average OD450 ([5]; antibody alone 2 μg/ml, anti-human IgG Fc-HRP, Table 24): 0.133 | Average OD450 ([5]; antibody alone 2 μg/ml, anti-mouse IgG Fc-HRP, Table 25): 2.674 | Average OD450 ([5]; antibody alone 4 μg/ml, anti-human IgG Fc-HRP, Table 24): 0.161 | Average OD450 ([5]; antibody alone 4 μg/ml, anti-mouse IgG Fc-HRP, Table 25): 2.702 | Average OD450 ([5]; antibody alone 8 μg/ml, anti-human IgG Fc-HRP, Table 24): 0.177 | Average OD450 ([5]; antibody alone 8 μg/ml, anti-mouse IgG Fc-HRP, Table 25): 2.726 | Average OD450 ([5]; antibody alone 16 μg/ml, anti-human IgG Fc-HRP, Table 24): 0.210 | Average OD450 ([5]; antibody alone 16 μg/ml, anti-mouse IgG Fc-HRP, Table 25): 2.818 | IC50 of mouse monoclonal antibody, Hetumomab Vs Hetuximab ([5]; inhibiting binding of 0.25 ug/ml Hetuximab): 3.138 µg/mL | IC50 of mouse monoclonal antibody, Hetumomab Vs Hetuzumab H5L6 ([5]; inhibiting binding of 0.25 ug/ml Hetuzumab H5L6): 1.178 µg/mL | IC50 of mouse monoclonal antibody, Hetumomab Vs Hetuzumab H5L11 ([5]; inhibiting binding of 0.25 ug/ml Hetuzumab H5L11): 0.9757 µg/mL | IC50 of mouse monoclonal antibody, Hetumomab Vs Hetuzumab H5L12 ([5]; inhibiting binding of 0.25 ug/ml Hetuzumab H5L12): 0.1902 µg/mL

B2: Hetuximab: human-mouse chimeric antibody derived from Hetumomab; heavy chain SEQ ID NO:9, light chain SEQ ID NO:10 (antibody)
heavy: QVTLKESGPGILQPSQTLSLTCSFSGFSLSTSGMGVSWIRQPSGKGLEWLAHIYWDDDKRYNPSLKSRLTISKDSSNNQVFLKITSVDTADTATYYCARSFYYYANNSFAYWGQGTLVTVSS[human IgG1 constant region left out here]
light: DIVMTQAAFSNPVTLGTSASISCRSSKSLLHSNGITYLYWFLQKPGQSPQLLIYQMSNLASGVPDRFSSSGSGTDFTLRISRVEAEDVGVYYCAQNLELYTFGGGTKLEIKRTVAAPSVFIFPPSDEQLKSGTASVVCLLNNFYPREAKVQWKVDNALQSGNSQESVTEQDSKDSTYSLSSTLTLSKADYEKHKVYACEVTHQGLSSPVTKSFNRGEC
modifications: Hetuximab chimeric antibody heavy chain amino acid sequence; Hetuximab chimeric antibody light chain amino acid sequence
positive rate, Parental Cells ([3]; BEL7402 V13, Table 26): 8.15% | positive rate, Sphere Cells ([3]; BEL7402 V13, Table 26): 11.9% | positive rate, Parent ([3]; BEL7402 V13, Table 32): 7.94% and 6.47% | positive rate, Sphere ([3]; BEL7402 V13, Table 32): 14.13% and 11.83% | positive rate, Parental Cells ([4]; MHCC-97L, Table 26): 5.18% | positive rate, Sphere Cells ([4]; MHCC-97L, Table 26): 11.8% | positive rate, Parent ([4]; MHCC-97L, Table 32): 6.80% and 8.21% | positive rate, Sphere ([4]; MHCC-97L, Table 32): 13.79% and 18.47%

Where “and” joins values, the source holds several entries; their conditions need not be identical. Equal entries are not always repeated.
